Measurements: the supplement of paper PMC12217912
This is one part of the list. The full chains were built here from the parent and the listed change. Values near 0.05 are background.

B1: TEV protease; numbered along this chain (parent)
chain: MGESLFKGPRDYNPISSSICHLTNESDGHTTSLYGIGFGPFIITNKHLFRRNNGTLVVQSLHGVFKVKDTTTLQQHLVDGRDMIIIRMPKDFPPFPQKLKFREPQREERICLVTTNFQTKSMSSMVSDTSCTFPSGDGIFWKHWIQTKDGQCGSPLVSTRDGFIVGIHSASNFTNTNNYFTSVPKNFMELLTNQEAQQWVSGWRLNADSVLWGGHKVFMVKPEEPFQPVKEATQL

Variants of: B1
Test: raw area under fraction-flipped curve 0-4 h after induction (AUC4h, not background-subtracted), DNA-recorder readout of cleavage of the substrate (dimensionless); higher = more cleavage of the substrate by the protease variant
Conditions: temperature: 34 °C; time window: 0-4 h after rhamnose induction
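Further: Bxb1 expression induced with 0.2% (w/v) L-rhamnose at OD600 near 0.5, cultures sampled hourly, flipped fraction per protease–substrate barcode pair counted by paired-end Illumina sequencing.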

Variant | area with substrate GNLYFQS | area with substrate HNLYFQS | area with substrate LNLYFQS | area with substrate MNLYFQS | area with substrate NNLYFQS | area with substrate PNLYFQS | area with substrate QNLYFQS | area with substrate SNLYFQS | area with substrate TNLYFQS | area with substrate WNLYFQS | area with substrate YNLYFQS | area with substrate FNLYFQS | area with substrate VNLYFQS | area with substrate INLYFQS | area with substrate KNLYFQS | area with substrate RNLYFQS
L156A | 0.0409 | 0.0551 | 0.0552 | 0.0621 | 0.0788 | 0.0607 | 0.0813 | 0.0626 | 0.0566 | 0.0712 | 0.0626 |  |  |  |  | 
L156F | 0.0554 | 0.0691 | 0.0503 | 0.0617 | 0.0523 | 0.0631 | 0.0515 | 0.0792 |  | 0.0651 | 0.0541 | 0.0719 | 0.0611 |  |  | 
E195I | 0.0576 |  | 0.046 | 0.052 |  |  | 0.0836 | 0.0638 |  | 0.0719 | 0.0725 | 0.0753 |  | 0.0494 | 0.0518 | 0.0626
A232I |  |  | 0.0644 |  |  |  |  |  | 0.0736 |  |  | 0.0768 | 0.0612 |  | 0.0831 | 
Q59C | 0.0495 |  | 0.0691 |  | 0.0645 | 0.072 |  |  |  | 0.0479 |  |  |  | 0.0677 |  | 
Q118E | 0.0664 | 0.058 | 0.0773 |  |  | 0.0885 |  | 0.044 | 0.0338 | 0.0628 | 0.0796 |  |  | 0.056 |  | 
Q197L | 0.0617 | 0.0635 | 0.0649 | 0.0629 |  | 0.0638 |  | 0.0796 | 0.0686 | 0.0599 |  | 0.0341 |  | 0.0887 | 0.0657 | 
T114G | 0.086 | 0.0597 | 0.0639 |  |  | 0.0388 |  | 0.074 | 0.0911 | 0.0596 | 0.0601 |  |  |  | 0.066 | 
Q146G |  |  | 0.0522 |  |  | 0.0634 |  |  | 0.0625 | 0.0562 | 0.074 | 0.0647 | 0.0652 | 0.0578 |  | 0.0687
Q146E | 0.0732 | 0.0601 |  | 0.0714 | 0.0797 | 0.0705 |  | 0.0769 |  |  | 0.0671 | 0.058 | 0.0526 | 0.0627 | 0.0641 | 
Q146Y | 0.0787 | 0.0447 | 0.0615 | 0.0651 |  | 0.0687 |  | 0.0629 | 0.0768 | 0.0618 | 0.0562 |  |  | 0.0508 | 0.0726 | 
V126D |  | 0.0561 | 0.0756 |  |  | 0.0641 | 0.0712 |  |  | 0.061 |  | 0.0692 | 0.0583 |  |  | 0.0663
S127R | 0.0692 | 0.0544 | 0.0627 | 0.055 | 0.0677 |  |  | 0.0713 | 0.0594 | 0.0576 | 0.0667 |  |  | 0.0847 | 0.0645 | 0.0587
V165Q | 0.0527 | 0.0372 | 0.0724 | 0.0494 |  | 0.052 |  | 0.0298 |  | 0.0468 | 0.0507 | 0.0458 | 0.0535 | 0.0385 | 0.0382 | 
I167M |  | 0.0584 |  |  |  | 0.0596 |  | 0.052 |  | 0.0533 | 0.0481 | 0.0568 |  |  |  | 0.0627
I167P | 0.0233 | 0.0511 | 0.0525 |  | 0.0365 | 0.0443 |  | 0.0176 | 0.0504 | 0.0462 | 0.0539 |  |  |  |  | 
D82S | 0.06 |  |  | 0.0563 |  |  |  |  |  | 0.0578 |  |  |  |  |  | 
S171N | 0.06 | 0.0579 | 0.0537 | 0.0659 |  |  |  | 0.0587 | 0.0608 | 0.0564 |  |  |  | 0.0668 |  | 
T119N |  | 0.0525 | 0.0779 |  | 0.0813 | 0.0783 |  | 0.067 | 0.0596 |  | 0.0592 | 0.0416 | 0.0657 | 0.0534 |  | 
Y179H | 0.0505 |  | 0.0498 | 0.0614 |  |  |  | 0.0569 | 0.0623 | 0.0557 |  | 0.0638 |  |  | 0.0632 | 

Variant | area with substrate GNLYFQS | area with substrate HNLYFQS | area with substrate LNLYFQS | area with substrate MNLYFQS | area with substrate NNLYFQS | area with substrate PNLYFQS | area with substrate QNLYFQS | area with substrate SNLYFQS | area with substrate TNLYFQS | area with substrate WNLYFQS | area with substrate YNLYFQS | area with substrate FNLYFQS | area with substrate VNLYFQS | area with substrate INLYFQS | area with substrate KNLYFQS | area with substrate RNLYFQS
Y179G |  | 0.0466 | 0.102 | 0.0657 |  |  |  | 0.0597 |  | 0.0545 |  | 0.0537 |  |  |  | 
F218C |  | 0.0557 | 0.0576 |  |  |  |  |  | 0.0667 |  |  | 0.0572 |  |  |  | 
R81Q | 0.0385 | 0.0664 | 0.0645 |  |  | 0.0532 |  | 0.0662 |  |  |  |  |  |  |  | 
I84Y | 0.131 | 0.0494 | 0.0516 |  |  | 0.055 |  |  |  | 0.068 |  |  | 0.0465 |  | 0.0091 | 
G162E |  | 0.0562 | 0.052 | 0.0662 | 0.0628 | 0.0564 | 0.0673 |  | 0.0571 |  | 0.05 | 0.0549 |  |  | 0.0523 | 
G162Y | 0.0715 | 0.0624 | 0.0582 | 0.0658 |  | 0.0541 |  | 0.0856 |  | 0.0467 | 0.0596 | 0.0814 |  |  |  | 0.0445
N206D | 0.0771 | 0.0796 | 0.0784 | 0.0843 |  | 0.0691 |  | 0.0614 |  | 0.0593 | 0.0729 | 0.0699 |  | 0.139 | 0.0748 | 0.0613
T115I | 0.0667 | 0.0619 | 0.0813 |  |  |  |  |  | 0.0613 | 0.0464 | 0.0609 | 0.0669 |  | 0.0435 |  | 
G153H | 0.0453 |  | 0.0559 | 0.0543 | 0.0453 | 0.0407 |  | 0.065 | 0.0479 | 0.0467 | 0.0469 |  |  | 0.056 | 0.0478 | 
G153A |  |  | 0.0533 | 0.0551 |  |  |  |  |  |  |  | 0.0679 |  | 0.0571 | 0.0276 | 
V220H |  | 0.0725 | 0.0626 |  |  | 0.0828 |  | 0.0872 | 0.0705 | 0.065 | 0.0638 | 0.0595 |  | 0.0777 |  | 0.065
L191R |  | 0.0583 |  | 0.0553 |  | 0.0707 |  |  | 0.0418 | 0.0631 | 0.055 | 0.0422 | 0.0642 | 0.0562 |  | 
F187S | 0.0584 | 0.0533 | 0.0591 | 0.0629 |  |  | 0.0457 | 0.0339 |  | 0.0528 |  | 0.0561 | 0.0619 | 0.051 | 0.0617 | 
F187K |  |  | 0.052 |  |  |  |  | 0.0536 |  | 0.0602 | 0.0389 | 0.0331 |  |  |  | 
S135E |  | 0.0682 | 0.0597 | 0.0543 |  |  |  | 0.0698 | 0.0765 | 0.0585 |  | 0.0552 |  |  |  | 
S135M | 0.0662 | 0.0446 |  |  |  |  |  |  | 0.0629 |  | 0.0621 |  | 0.0518 |  |  | 
D91G | 0.0662 |  | 0.0638 | 0.0683 |  |  |  |  | 0.0737 | 0.0653 | 0.0742 |  |  | 0.0725 | 0.0769 | 0.0682
P93G | 0.0659 | 0.0684 | 0.0779 |  | 0.0563 | 0.067 | 0.0928 |  | 0.0707 | 0.0568 | 0.0625 |  | 0.0489 | 0.0635 | 0.063 | 
P93E | 0.0717 | 0.0528 |  | 0.0591 |  | 0.0989 |  | 0.0687 | 0.0672 | 0.0648 |  |  |  |  |  | 
